Assay results as given in the supplement of paper PMC10126150.
Sequences with one replicate were seen in a single cluster, so their values are uncertain.

Tested on: ATP
Assay: switch fluorescence ratio, 500 uM ATP over buffer (Cy3 cluster intensity, sum of 5 cycles each) (fold (ratio)); higher = stronger signal-on switching upon ATP binding; sequences stand for … in TCGTCGGCAGCGTCAGATGTGTATAAGAGACAGTTTTTTTTTTTTTTTTTTTTTTTTT…TC
Details: aptamer strand: ATP DNA aptamer (quencher-CACCTGGGGGAGTATTGCGGAGGAAGG + anchor), 100 nM annealed; ATP concentration: 500 uM; one replicate
Method in brief: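 Imaging in selection buffer was followed by imaging after 15 min with 500 uM ATP at 22 °C, for Cy3-labelled switching-strand clusters annealed to 100 nM quencher-labelled ATP aptamer on a modified Illumina MiSeq flow-cell. Five of these buffer/ATP cycles ran, separated by NaOH stripping and re-annealing. The fluorescence ratio per cluster is summed target-cycle over summed buffer-cycle Cy3 intensity, averaged per switch-domain sequence; clusters outside 100-1000 RFU were removed.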
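Note: ATP exposure 15 min at 22 °C before imaging.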

Sequence | switch fluorescence ratio
ACCCTGGATC | 1.06
TGCGTCACTT | 1.03
AAATTGACGC | 1.06
GATATTATCG | 1.03
CAGAGTCCAC | 0.979
CCATGCTAGC | 1.11
TAAGTTCGGA | 1.01
GGGGGGGT | 1.04
TGACGGTTAG | 0.986
AAATCTCCGT | 1.09
GTGCGAACCC | 1.06
ATTGTCTGAA | 0.978
TGCCGACCGA | 1.04
TTCCGAGAAT | 1.17
ATCATATTAT | 1.03
GTCGTCGGGA | 1.03
GGTGCTAGAT | 1.02
CGGAGAACTG | 1.11
TAAGAGTTAC | 1.08
TCTAAGTGTT | 1.01
GAACTCTGTT | 1.01
TTCGGCAAAA | 1.24
CAGAGAATAG | 1.17
ATAAGCTAGA | 1.01
CCGTCAGTCG | 1.04
GAGAAAGATT | 0.962

Sequence | switch fluorescence ratio
AATCAGGACT | 0.976
TCCGATAATG | 1.08
GGAACATCAG | 0.995
CAAAGTCTTT | 0.957
CAGTCATGTT | 0.982
CTGGTAGCAG | 0.988
TAACGCGTGT | 1.01
GCCTTGAGAG | 0.985
CTTAGGATTT | 0.97
ACCTATATGC | 1.31
ATATAATGCT | 0.942
TGTGACAAGA | 1.07
TCAAGTACGT | 1.29
TGCTTCTTAC | 1.13
ACGGCACAGT | 1.39
TGCTAGTAAC | 1.04
CATCGTTGCA | 0.981
TGGTCACGT | 0.989
TCAAGTGGTT | 0.999
GCCACTTGTG | 0.919
GAACTGGGAC | 1.02
GAAAATCCAT | 1.04
TGGGTTAACG | 1.01
GAATGGTGC | 0.903
TTTAGCCACG | 0.968
TTTTTAGTCA | 0.977

Sequence | switch fluorescence ratio
ACTAGATAAA | 1.02
CATTAGCGGC | 1.05
CTTGACACGG | 0.975
TTGCCGTTTG | 0.927
AACAAAGTC | 1
GGCACGGTTT | 1.03
TCGTTATAT | 1.06
TGCAAGCACA | 1.22
GCGGTTAATG | 0.952
GCTGTGTTTA | 1.02
GATATGAATG | 0.998
GGAACTAAAG | 0.982
AAGATGCGAC | 1.08
GGCGCCTA | 0.982
CCGGGGATGG | 1.04
CTTGGACACT | 1.04
AACGATACGA | 1.36
GGATTGCTGC | 0.909
GTCGTCAGT | 0.989
CATCGTTTGA | 1.01
GACACTTAAG | 1.05
GGAGAAGTGT | 1.01
CCGGGTCTGA | 1.03
CTCTACTGA | 1.06
GCGGTTCCAA | 0.96
TTTCGGCTGT | 1.03

Sequence | switch fluorescence ratio
AAACACGATT | 1.05
AGCGGACTAA | 1.01
TTATCTAGGC | 0.965
AACATAGAGC | 1.03
TTTATGTGG | 0.999
CTGATCGTAT | 1.14
GCAATGTGCG | 1.02
CCCCGTCTGT | 1.43
CGTTATTGCG | 1.02
AATGGTTAAT | 0.99
GCCCGTTGTT | 1.01
TAAGGCGTCG | 0.991
TTGAGAACTA | 0.958
CAACGCTTGC | 2.63
ATGCTTCCAA | 1.02
GCCTCTAGCA | 4.17
CCATTCAGCC | 1.01
CCAGCCCCCC | 1.13
GGCTGGCCTC | 0.965
GCGCGAGTAT | 1.01
GCTAGACGGT | 1.02
GATGAGAAC | 0.987
CTACCAGAGA | 1.02
AAGCATCTGG | 0.97
GTGTCATGTG | 0.976
TGGCTTTATT | 0.938

Sequence | switch fluorescence ratio
GCTTTATGAC | 1.04
CGGTACTTGA | 1.01
CCGATTTAAT | 1.14
TAGGACCCGC | 1.06
TAATGGGTTG | 1.01
AAGAGTACCC | 0.968
CGTTAGGTCC | 1.04
GGCGCCTGTG | 1
GCATGCAAGA | 0.986
CGAGATGGTG | 1.01
AGACTACGT | 0.978
CGCGATTCAG | 1.13
GCTTTAGCCG | 0.963
TCGCACCGTG | 1.13
AGTTGGCGGT | 0.88
TGAAACTTT | 1.02
GTTTGGGCTA | 0.996
GGGAATC | 1.03
GAAAGGATGG | 0.993
TCGGTTACG | 1.01
AGTTTAGGGC | 1.01
CTCGAGGGGA | 1.05
TTTATCTATA | 1
CTCAGGCA | 1.19
ACTTCTATC | 1.01
ACTTTTCACT | 1.16

Sequence | switch fluorescence ratio
GGAGGTTTTT | 0.965
GTTCTGAGAT | 1.01
TTGTCTTGAG | 0.962
CCATGGGACC | 1.01
CCACATTAAT | 1.06
CGGAGCCACT | 1.09
GGTATGTGTA | 0.961
GGCCAAAGCT | 0.964
TAGACGTCAT | 1.03
TCGGCCTGGA | 1.03
CAGTAGAAA | 0.998
AGTGGGGGA | 0.978
CTCATTAAAC | 1
GGCCTTTTGG | 0.941
GCCGCCGTAT | 0.999
ACGTGGG | 1.03
CCATAGTTAG | 1.08
GATAGATGG | 0.98
TATATCCGTC | 0.996
ATAAGGGCCC | 0.981
AAGGATCAGG | 1.02
CCGCGGCTCA | 3.42
TTCGAGTTCT | 0.96
GGGGGCTAG | 1.07
CGGTTTCCT | 1.02
TAGCGAAACG | 1.08

Sequence | switch fluorescence ratio
CCCTGCGAAG | 1.08
TGAAAGCCAA | 0.998
CGGGTCGTCA | 1.05
ACCGGGGGGC | 1.3
GACGTGTTTA | 1
GAGTCGCGGC | 0.877
TAACTTCTAA | 0.999
CTGTAAAAGG | 1.01
CATGCGGATT | 1
TACAATATTG | 1.02
GTTGATAGTT | 0.988
TTTCAGTCCG | 1.2
ATCCATGACT | 1.03
ATTTCCGCTA | 3.3
ATGTTTGTAT | 1.01
GTCATCTGCT | 0.999
AATGATCCGT | 1.02
CGCGAGACCG | 1.1
GCGATTGTAT | 0.99
AGATATGCAT | 0.997
ACTTTGAAAC | 1.04
ATAAGCCATA | 1.02
TCAGGTGGTA | 1.14
GGGTGGCCGG | 1.03
TGATGTAGGG | 1
CGACAGGCTT | 1.05

Sequence | switch fluorescence ratio
CGAGGGCAGT | 1.18
TTTCGAGACA | 0.981
TTCATTTCAG | 1.03
TGCTAACGAT | 1
CTCTCGCTTA | 2.41
CCAAACCGAG | 1.79
AGCAGATTCA | 0.956
TAATTGACCT | 1.13
CATGTTAAGG | 1
CCCCCGAAGG | 1.35
AGCCGGACAC | 1.07
GGGTAAAAAT | 0.926
GAAATGGTCT | 0.991
GCTACTCGGT | 1.03
GCGTACATTA | 1.02
CGCGACTGTG | 0.986
CAGGGCCCTC | 1.03
GATAAAAACT | 2.5
AACTGTACGG | 1.27
